First the molecules themselves.
T1: RBFOX1 RRM RbFoxmut (Fox-RRM*) (Homo sapiens, UniProt Q9NWB1 109-208, R118D;E147R;N151S;E152T)
T1 sequence: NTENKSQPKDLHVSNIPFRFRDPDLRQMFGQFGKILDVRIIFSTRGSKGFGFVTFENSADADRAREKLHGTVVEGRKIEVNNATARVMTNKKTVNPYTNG

B1: AUGACAU (DNA:RNA)
RNA: GGGAGACCGGAAUUCAGAUUGUCCAUGACAUUUAAAUCCCGUCGUAGCCACCA
DNA 1: CAATCTGAATTCCGGTCTCCC
DNA 2: TGGTGGCTACGACGGGATT
B2: GUCAACG (DNA:RNA)
RNA: B1 RNA with A25G, G27C, C29A, A30C, U31G
DNA 1: CAATCTGAATTCCGGTCTCCC
DNA 2: TGGTGGCTACGACGGGATT
B3: GAGAUGU (DNA:RNA)
RNA: B1 RNA with A25G, U26A, C29U, A30G
DNA 1: CAATCTGAATTCCGGTCTCCC
DNA 2: TGGTGGCTACGACGGGATT
B4: CCCCGAA (DNA:RNA)
RNA: B1 RNA with A25C, U26C, G27C, A28C, C29G, U31A
DNA 1: CAATCTGAATTCCGGTCTCCC
DNA 2: TGGTGGCTACGACGGGATT
B5: GACAGUG (DNA:RNA)
RNA: B1 RNA with A25G, U26A, G27C, C29G, A30U, U31G
DNA 1: CAATCTGAATTCCGGTCTCCC
DNA 2: TGGTGGCTACGACGGGATT
B6: AGAGUUU (DNA:RNA)
RNA: B1 RNA with U26G, G27A, A28G, C29U, A30U
DNA 1: CAATCTGAATTCCGGTCTCCC
DNA 2: TGGTGGCTACGACGGGATT
B7: GGGGUUC (DNA:RNA)
RNA: B1 RNA with A25G, U26G, A28G, C29U, A30U, U31C
DNA 1: CAATCTGAATTCCGGTCTCCC
DNA 2: TGGTGGCTACGACGGGATT
B8: UGAUCUU (DNA:RNA)
RNA: B1 RNA with A25U, U26G, G27A, A28U, A30U
DNA 1: CAATCTGAATTCCGGTCTCCC
DNA 2: TGGTGGCTACGACGGGATT
B9: UUCUACG (DNA:RNA)
RNA: B1 RNA with A25U, G27C, A28U, C29A, A30C, U31G
DNA 1: CAATCTGAATTCCGGTCTCCC
DNA 2: TGGTGGCTACGACGGGATT
B10: CAGGUCC (DNA:RNA)
RNA: B1 RNA with A25C, U26A, A28G, C29U, A30C, U31C
DNA 1: CAATCTGAATTCCGGTCTCCC
DNA 2: TGGTGGCTACGACGGGATT
B11: UUCAGAA (DNA:RNA)
RNA: B1 RNA with A25U, G27C, C29G, U31A
DNA 1: CAATCTGAATTCCGGTCTCCC
DNA 2: TGGTGGCTACGACGGGATT
B12: AUCUUCU (DNA:RNA)
RNA: B1 RNA with G27C, A28U, C29U, A30C
DNA 1: CAATCTGAATTCCGGTCTCCC
DNA 2: TGGTGGCTACGACGGGATT
B13: GAGCGCC (DNA:RNA)
RNA: B1 RNA with A25G, U26A, A28C, C29G, A30C, U31C
DNA 1: CAATCTGAATTCCGGTCTCCC
DNA 2: TGGTGGCTACGACGGGATT
B14: CGUCAUA (DNA:RNA)
RNA: GGGAGACCGGAAUUCAGAUUGUCCCGUCAUAUUAAAUCCCGUCGUAGCCACCA
DNA 1: CAATCTGAATTCCGGTCTCCC
DNA 2: TGGTGGCTACGACGGGATT
B15: GAUUACA (DNA:RNA)
RNA: B14 RNA with C25G, G26A, C28U, U30C
DNA 1: CAATCTGAATTCCGGTCTCCC
DNA 2: TGGTGGCTACGACGGGATT
B16: UCAAACU (DNA:RNA)
RNA: B1 RNA with A25U, U26C, G27A, C29A, A30C
DNA 1: CAATCTGAATTCCGGTCTCCC
DNA 2: TGGTGGCTACGACGGGATT
B17: AAAAACU (DNA:RNA)
RNA: B1 RNA with U26A, G27A, C29A, A30C
DNA 1: CAATCTGAATTCCGGTCTCCC
DNA 2: TGGTGGCTACGACGGGATT
B18: CGUUGGA (DNA:RNA)
RNA: B14 RNA with C28U, A29G, U30G
DNA 1: CAATCTGAATTCCGGTCTCCC
DNA 2: TGGTGGCTACGACGGGATT
B19: AGGUCAG (DNA:RNA)
RNA: B1 RNA with U26G, A28U, U31G
DNA 1: CAATCTGAATTCCGGTCTCCC
DNA 2: TGGTGGCTACGACGGGATT
B20: AACUCUA (DNA:RNA)
RNA: B1 RNA with U26A, G27C, A28U, A30U, U31A
DNA 1: CAATCTGAATTCCGGTCTCCC
DNA 2: TGGTGGCTACGACGGGATT
B21: CUUGCGA (DNA:RNA)
RNA: B14 RNA with G26U, C28G, A29C, U30G
DNA 1: CAATCTGAATTCCGGTCTCCC
DNA 2: TGGTGGCTACGACGGGATT
B22: UUUGCCG (DNA:RNA)
RNA: B1 RNA with A25U, G27U, A28G, A30C, U31G
DNA 1: CAATCTGAATTCCGGTCTCCC
DNA 2: TGGTGGCTACGACGGGATT
B23: CAAUACA (DNA:RNA)
RNA: B14 RNA with G26A, U27A, C28U, U30C
DNA 1: CAATCTGAATTCCGGTCTCCC
DNA 2: TGGTGGCTACGACGGGATT
B24: AUAUAAA (DNA:RNA)
RNA: B1 RNA with G27A, A28U, C29A, U31A
DNA 1: CAATCTGAATTCCGGTCTCCC
DNA 2: TGGTGGCTACGACGGGATT
B25: GGAUUUG (DNA:RNA)
RNA: B14 RNA with C25G, U27A, C28U, A29U, A31G
DNA 1: CAATCTGAATTCCGGTCTCCC
DNA 2: TGGTGGCTACGACGGGATT
B26: UGGAGUU (DNA:RNA)
RNA: B1 RNA with A25U, U26G, C29G, A30U
DNA 1: CAATCTGAATTCCGGTCTCCC
DNA 2: TGGTGGCTACGACGGGATT
B27: CGGCACU (DNA:RNA)
RNA: B14 RNA with U27G, U30C, A31U
DNA 1: CAATCTGAATTCCGGTCTCCC
DNA 2: TGGTGGCTACGACGGGATT
B28: AAGGAUC (DNA:RNA)
RNA: B1 RNA with U26A, A28G, C29A, A30U, U31C
DNA 1: CAATCTGAATTCCGGTCTCCC
DNA 2: TGGTGGCTACGACGGGATT
B29: UUUAUCG (DNA:RNA)
RNA: B1 RNA with A25U, G27U, C29U, A30C, U31G
DNA 1: CAATCTGAATTCCGGTCTCCC
DNA 2: TGGTGGCTACGACGGGATT
B30: CUUUUCA (DNA:RNA)
RNA: B14 RNA with G26U, C28U, A29U, U30C
DNA 1: CAATCTGAATTCCGGTCTCCC
DNA 2: TGGTGGCTACGACGGGATT
B31: CAGUGCG (DNA:RNA)
RNA: B1 RNA with A25C, U26A, A28U, C29G, A30C, U31G
DNA 1: CAATCTGAATTCCGGTCTCCC
DNA 2: TGGTGGCTACGACGGGATT

This note sets out measurements from PMC9911399, “Two distinct binding modes provide the RNA-binding protein RbFox with extraordinary sequence specificity”.

Positions count from the first letter of the chain named. This is one part of the list.

The target in this experiment is T1, RBFOX1 RRM RbFoxmut (Fox-RRM*). Nature of the experiment: EMSA; HiTS-Eq, 1 nM pool, 10 min; buffer printed only for the single-RNA assays: 10 mM Tris pH 7.5, 150 mM NaCl, 3.4 mM EDTA, 0.001% NP-40, 30 C. As to conditions: tags: His6 N-terminal (pET28a); label: 5' 32P. Summed up:
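A pool of RNA with 7 randomized nucleotides, 5′-radiolabelled and with DNA-annealed flanks, was equilibrated at 1 nM for 10 min in 50 µL with purified RbFox RRM, wild type or mutant, across increasing protein concentrations. Free RNA was separated by 8% native PAGE, excised, reverse-transcribed, barcoded by PCR and sequenced. Relative association constants were obtained from read-count changes of each RNA species versus the control reaction and normalised to the cognate motif.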
(In general: Mobility shift assays separate free from complexed probe on a gel.)
With B1, the binding signal was 0.0668 KA relative to UGCAUGU.
Under B2 stands 0.0916 KA relative to UGCAUGU.
B3: the binding signal is 0.15 KA relative to UGCAUGU.
B4: the binding signal was 0.136 KA relative to UGCAUGU.
With B5, the binding signal is 0.0735 KA relative to UGCAUGU.
For B6, the binding signal is 0.11 KA relative to UGCAUGU.
Under B7 stands 0.239 KA relative to UGCAUGU; under B8, 0.0627 KA relative to UGCAUGU; under B9, 0.12 KA relative to UGCAUGU.
Take B10: the binding signal was 0.0887 KA relative to UGCAUGU.
Under B11 stands 0.0784 KA relative to UGCAUGU.
Regarding B12, the binding signal was 0.0699 KA relative to UGCAUGU.
In the case of B13, the binding signal was 0.113 KA relative to UGCAUGU.
For the molecule B14, the binding signal was 0.0938 KA relative to UGCAUGU.
With B15, the binding signal was 0.0939 KA relative to UGCAUGU.
Under B16 stands 0.0725 KA relative to UGCAUGU; under B17, 0.0883 KA relative to UGCAUGU.
As to B18, the binding signal was 0.0875 KA relative to UGCAUGU.
On to B19, for which the binding signal is 0.117 KA relative to UGCAUGU.
Under B20 stands 0.0916 KA relative to UGCAUGU; under B21, 0.0924 KA relative to UGCAUGU.
As for B22, the figure is 0.13 KA relative to UGCAUGU; as for B23, 0.115 KA relative to UGCAUGU.
Turning to B24, the binding signal is 0.128 KA relative to UGCAUGU.
Regarding B25, the binding signal was 0.212 KA relative to UGCAUGU.
As for B26, the figure is 0.105 KA relative to UGCAUGU; as for B27, 0.0631 KA relative to UGCAUGU; as for B28, 0.0772 KA relative to UGCAUGU.
Under B29 stands 0.108 KA relative to UGCAUGU; under B30, 0.0959 KA relative to UGCAUGU; under B31, 0.148 KA relative to UGCAUGU.
